These results are taken from PMC4336329 (PLoS ONE, 2015).

Molecules are shown by their SMILES. Among all 310,000 compounds or so, about 2,200 (0.71%) showed an effect of 50% or more. Effects have a minus sign here. Some of the results follow.

Sequence of human ether-à-go-go-related gene (hERG) potassium channel (Q12809 whole entry, looked up): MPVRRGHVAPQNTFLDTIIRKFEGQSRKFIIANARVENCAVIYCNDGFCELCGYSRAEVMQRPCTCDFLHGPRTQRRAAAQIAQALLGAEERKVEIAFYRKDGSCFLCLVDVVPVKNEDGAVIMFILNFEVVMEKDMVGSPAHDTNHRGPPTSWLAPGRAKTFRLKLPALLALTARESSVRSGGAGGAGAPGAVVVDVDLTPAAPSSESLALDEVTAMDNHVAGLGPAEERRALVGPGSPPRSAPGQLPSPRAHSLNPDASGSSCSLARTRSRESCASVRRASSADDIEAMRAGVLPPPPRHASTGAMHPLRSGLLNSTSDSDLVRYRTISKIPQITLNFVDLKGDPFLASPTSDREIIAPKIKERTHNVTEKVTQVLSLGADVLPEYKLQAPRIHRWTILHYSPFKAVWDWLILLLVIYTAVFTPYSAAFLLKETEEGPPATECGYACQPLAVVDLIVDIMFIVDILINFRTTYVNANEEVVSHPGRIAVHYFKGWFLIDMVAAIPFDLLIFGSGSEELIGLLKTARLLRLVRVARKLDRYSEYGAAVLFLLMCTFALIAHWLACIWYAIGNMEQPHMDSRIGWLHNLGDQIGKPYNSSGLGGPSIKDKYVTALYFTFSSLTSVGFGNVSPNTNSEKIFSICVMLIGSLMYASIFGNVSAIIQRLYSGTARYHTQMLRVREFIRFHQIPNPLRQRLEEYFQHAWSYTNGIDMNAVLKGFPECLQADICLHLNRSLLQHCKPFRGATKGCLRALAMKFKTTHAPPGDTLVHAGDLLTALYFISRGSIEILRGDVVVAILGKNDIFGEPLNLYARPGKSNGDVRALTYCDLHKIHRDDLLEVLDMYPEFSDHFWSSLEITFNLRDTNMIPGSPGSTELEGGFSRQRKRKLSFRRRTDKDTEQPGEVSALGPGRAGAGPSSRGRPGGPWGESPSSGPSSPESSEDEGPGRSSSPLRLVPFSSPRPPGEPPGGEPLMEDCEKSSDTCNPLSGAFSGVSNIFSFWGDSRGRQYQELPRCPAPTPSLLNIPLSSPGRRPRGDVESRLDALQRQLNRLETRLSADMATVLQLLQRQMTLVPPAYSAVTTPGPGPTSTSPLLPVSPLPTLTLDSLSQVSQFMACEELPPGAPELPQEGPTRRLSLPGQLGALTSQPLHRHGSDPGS

This assay has as its target human ether-à-go-go-related gene (hERG) potassium channel (human, UniProt Q12809). In words: primary screen, population patch clamp on CHO cells stably expressing hERG.
As for `C[C@H](NS(=O)(=O)c1ccccc1)C(=O)OCC(=O)NC(=O)Nc1ccc2c(c1)OCCO2`, the “hERG current change (%, negative = inhibition) at 1uM” value was found to be 8.95%. As for `COc1ccc(Oc2nc(-c3ccccn3)nc3ccccc23)cc1`, the “hERG current change (%, negative = inhibition) at 1uM” value stood at 10.2%. In the case of `COc1cc([C@@H]2c3cc4c(cc3[C@@H](O)[C@@H](CO)[C@@H]2CO)OCO4)cc(OC)c1O[Si](C)(C)C(C)(C)C` it was 7.41%; in that of `Fc1ccccc1-c1nc(NCc2ccco2)c2ccccc2n1`, 5.53%. Consider `Cc1cc(NC(=O)CN2C(=O)/C(=C/c3ccccc3F)SC2=S)no1`, for which the “hERG current change (%, negative = inhibition) at 1uM” value was determined as 13.8%. In the case of `O=C(Oc1cccc(NC(=O)c2ccco2)c1)c1cccc(S(=O)(=O)N2CCCC2)c1`, the “hERG current change (%, negative = inhibition) at 1uM” value is given as -5.08%. With `O=C(NCCCN1CCCC1)c1ccc(CS(=O)(=O)c2ccc(Br)cc2)o1`, the “hERG current change (%, negative = inhibition) at 1uM” value is reported as 5.6%. In the case of `O=C(NN1C(=O)C2C3C=CC(C3)C2C1=O)C(O)c1ccccc1` (stereo not drawn) it was 10.6%; in that of `Cc1ccc(C)c(-n2c(-c3ccc4c(c3)OCO4)n[nH]c2=S)c1`, 3.11%; in that of `COc1cc(OC)c(C=O)c(OC(=O)N(C)C)c1`, 0.963%. With `CC(C)NC(=O)CCN1C(=O)c2ccccc2Sc2ncccc21`, the “hERG current change (%, negative = inhibition) at 1uM” value is reported as 6.59%. For `c1ccc(-c2ccccc2-c2nc(-c3cccnc3)no2)cc1`, the “hERG current change (%, negative = inhibition) at 1uM” value worked out at 12.6%. Take `O=C(Nc1ccc(N2CCCCC2)cc1)c1ccc(F)cc1`: the “hERG current change (%, negative = inhibition) at 1uM” value was 10.9%. With `COC(=O)[C@@H]1C[C@@]2(O)[C@@H](O)[C@@H](O)[C@@H](O)C[C@H]2N1Cc1ccc(C)s1`, the “hERG current change (%, negative = inhibition) at 1uM” value came out at 16.1%.

Consider `COc1ccc(CCn2nnnc2C(c2ccc(Cl)cc2)N2CCN(C)CC2)cc1OC.Cl` (stereo not drawn), for which the “hERG current change (%, negative = inhibition) at 1uM” value came to 8.63%. Take `S=C1N(c2ccccc2)C(c2ccccc2)N2CCCN12` (stereo not drawn): the “hERG current change (%, negative = inhibition) at 1uM” value stood at 6.76%. As to `Cc1ccccc1CC(=O)NC1CCCCCC1`, the “hERG current change (%, negative = inhibition) at 1uM” value was 18.8%.

On to `O=C(Nc1ccc(F)cc1F)C1CC(=O)N(Cc2ccccc2)C1` (stereo not drawn), for which the “hERG current change (%, negative = inhibition) at 1uM” value was -1.89%. As for `COc1cccc(N(CC(=O)NCCSc2ccccn2)S(=O)(=O)c2ccccc2)c1`, the “hERG current change (%, negative = inhibition) at 1uM” value is given as 7.85%. In the case of `COCCNC(=O)CN1CCC(NC(=O)C(C)(C)C)CC1` it was 6.11%; in that of `Cc1onc(-c2c(Cl)cccc2Cl)c1C(=O)NCc1cccs1`, 5.69%. With `O=C(COC(=O)C1=COCCO1)Nc1cccc(Oc2ccccc2)c1`, the “hERG current change (%, negative = inhibition) at 1uM” value was found to be 5.05%. As to `CC(C)N1CCN(C(=O)c2cccc(Cl)c2)CC1.O=C(O)C(=O)O`, the “hERG current change (%, negative = inhibition) at 1uM” value is recorded as 14.6%.

In the case of `Cc1ccccc1N(C(=O)CNC(=O)c1cccs1)C(C(=O)NC1CCCC1)c1ccncc1` (stereo not drawn), the “hERG current change (%, negative = inhibition) at 1uM” value was determined as 2.9%. In the case of `COC(=O)c1ccc(COC(=O)CNC(=O)CNC(=O)c2ccc(OC)cc2)cc1` it was 3.78%; in that of `O=C(CCc1nc2ccccc2c(=O)[nH]1)NC1CCN(Cc2ccccc2)CC1`, 9.07%; in that of `COc1ccc(OC)c(N(CC(=O)Nc2ccc(NC(C)=O)cc2)S(C)(=O)=O)c1`, 11.6%.

`CCc1cc(OCCN2C(=O)NC(C)(C)C2=O)ccc1Cl`: the “hERG current change (%, negative = inhibition) at 1uM” value is 15.6%.

Take `CCOC(=O)c1[nH]c2ccccc2c1NC(=O)c1ccc(Br)o1`: the “hERG current change (%, negative = inhibition) at 1uM” value is recorded as -1.99%. As to `CSc1ccccc1NC(=O)CN(C)CC(=O)Nc1ccccc1F.O=C(O)C(=O)O`, the “hERG current change (%, negative = inhibition) at 1uM” value was found to be 3.46%.

For `O=[N+]([O-])c1ccc(S(=O)(=O)N2CCN=C2SCc2cccnc2)cc1`, the “hERG current change (%, negative = inhibition) at 1uM” value was -13.7%. As for `Cc1ccc(N/C=C/C(=O)c2sc(-c3ccccc3)nc2C)cc1`, the “hERG current change (%, negative = inhibition) at 1uM” value amounted to 10.8%. For the compound `COc1ccccc1C(=O)Nc1ccc(C(=O)c2ccccc2)cc1`, the “hERG current change (%, negative = inhibition) at 1uM” value is on record as 15%. As to `CCN1C(C)=C(C)S/C1=C1\SC(=S)N(NC(C)=O)C1=O`, the “hERG current change (%, negative = inhibition) at 1uM” value is listed as -0.944%.

As to `CCOc1ccc(S(=O)(=O)N2CCC(C(=O)Nc3cccc(NC(C)=O)c3)CC2)cc1`, the “hERG current change (%, negative = inhibition) at 1uM” value came out at 15.7%.

As for `CCN(c1ccc(OC)cc1)S(=O)(=O)c1ccc(-c2cc(C)no2)s1`, the “hERG current change (%, negative = inhibition) at 1uM” value is 15.9%. Regarding `O=C(Nc1ccc(Cl)cn1)c1ccc(Oc2ccccc2)cc1`, the “hERG current change (%, negative = inhibition) at 1uM” value amounted to 8.4%.

For `O=c1c2ccccc2c(=O)n2n1Cc1ccccc1C2`, the “hERG current change (%, negative = inhibition) at 1uM” value came to 12%. Turning to `COc1ccc2c(c1)NC1(O)c3ccccc3C(=O)C21O` (stereo not drawn), the “hERG current change (%, negative = inhibition) at 1uM” value is on record as -17.7%. In the case of `Cc1nc(Nc2ccccc2)sc1-c1ccccc1` it was 6.8%; in that of `CCCCn1c(N)c(N(CCOC)C(=O)CSc2nnc(C)n2-c2ccc(OC)cc2)c(=O)[nH]c1=O`, 13.5%. In the case of `O=C(CCNC(=O)C1CCN(S(=O)(=O)c2ccccc2)CC1)NC1CC1` it was 14.4%; in that of `Cc1ccc(CNC(=O)Cn2ncn3cccc3c2=O)cc1`, 13%. For the compound `Cc1ccc2nc(CSc3nnc4ccccn34)cc(=O)n2c1`, the “hERG current change (%, negative = inhibition) at 1uM” value came to 13.6%. In the case of `O=C(Nc1ccccc1Cl)c1sccc1-c1ccccc1` it was 22.3%; in that of `COc1ccc(S(=O)(=O)N2CCN(C(=O)CNC(=O)c3ccc4c(c3)OCO4)CC2)cc1`, 29.2%. Take `COc1ccc(CN2CC(=O)N(c3cc(Cl)ccc3C)C2=S)cc1OC`: the “hERG current change (%, negative = inhibition) at 1uM” value is 10%.

Consider `O=C(C1CCN(S(=O)(=O)c2cnc[nH]2)CC1)N1CCN(c2ncccn2)CC1`, for which the “hERG current change (%, negative = inhibition) at 1uM” value was -0.961%. Turning to `CC(C)c1onc(C(=O)Nc2cccc(O)c2)c1[N+](=O)[O-]`, the “hERG current change (%, negative = inhibition) at 1uM” value is reported as 13.2%. As to `Cc1ccc(C(OCC(O)CN2CCCCC2CO)c2ccccc2)cc1` (stereo not drawn), the “hERG current change (%, negative = inhibition) at 1uM” value is -39.7%.

Regarding `O=C(NC1CCCC1)C(c1cccs1)N(Cc1ccco1)C(=O)c1csnn1` (stereo not drawn), the “hERG current change (%, negative = inhibition) at 1uM” value was determined as 10.6%. For `CCN1CCSc2ccc(C(=O)NCc3ccccc3Br)cc21` the value was 11.8%; for `CN(C)S(=O)(=O)c1ccc(Oc2ccccc2)cc1`, -15.7%. As for `CC1(CCc2ccc(O)cc2)NC(=O)NC1=O` (stereo not drawn), the “hERG current change (%, negative = inhibition) at 1uM” value was 14.8%. Regarding `NC(=O)N/N=C/c1ccc2cccc(OCc3ccccc3)c2n1`, the “hERG current change (%, negative = inhibition) at 1uM” value came out at 2.38%. On to `NC(=O)c1ccsc1NC(=O)c1ccc(S(=O)(=O)N2CCCc3ccccc32)cc1`, for which the “hERG current change (%, negative = inhibition) at 1uM” value came to 11.4%. As to `CCN(CC)Cc1ccc(NC(=O)c2sc3cc(Cl)ccc3c2Cl)cc1`, the “hERG current change (%, negative = inhibition) at 1uM” value worked out at 6.7%. `CCC(CO)Nc1ncnc2onc(-c3ccc(F)cc3)c12` (stereo not drawn): the “hERG current change (%, negative = inhibition) at 1uM” value stood at 5.81%. Turning to `CC1CC(Nc2ccccc2)=CC(=O)O1` (stereo not drawn), the “hERG current change (%, negative = inhibition) at 1uM” value worked out at 20.1%. With `CC(=O)C1=C(C)NC(SCC(=O)c2ccc(-c3ccccc3)cc2)=C(C#N)C1c1cccnc1` (stereo not drawn), the “hERG current change (%, negative = inhibition) at 1uM” value worked out at 12.8%.

With `C=CCN1C=CC(=C/C=C(/C#N)C(=O)OCC)C=C1`, the “hERG current change (%, negative = inhibition) at 1uM” value worked out at 6.6%.

In the case of `O=C(NCCc1c[nH]c2ccccc12)/C(=C/c1cccnc1)NC(=O)c1ccccc1`, the “hERG current change (%, negative = inhibition) at 1uM” value was determined as 7.48%. `O=C(NC1CCCC1)C(c1ccncc1)N(Cc1ccco1)C(=O)c1ccc(-c2ccccc2)[nH]1` (stereo not drawn): the “hERG current change (%, negative = inhibition) at 1uM” value came out at 21.8%. For `Cc1nc2ccc(S(=O)(=O)N(C)CC(=O)NCCc3ccccc3)cc2s1`, the “hERG current change (%, negative = inhibition) at 1uM” value is on record as 8.02%.

As for `CC1(C)Oc2ccc(C(=O)N3CCOCC3)cc2N(CC(=O)Nc2ccccc2)C1=O`, the “hERG current change (%, negative = inhibition) at 1uM” value is recorded as 8.3%. For `COC(=O)c1cn(NC(=O)Cn2nc([N+](=O)[O-])c(Br)c2C)c(=O)c2ccccc12`, the “hERG current change (%, negative = inhibition) at 1uM” value came out at 27.7%. Consider `C=CCOc1ccc(CNC(C)(C)C)cc1OC.Cl`, for which the “hERG current change (%, negative = inhibition) at 1uM” value was 2.68%. Regarding `COc1ccc(Oc2nc(OC)cc(OC)n2)cc1`, the “hERG current change (%, negative = inhibition) at 1uM” value is recorded as 9.71%. `S=C(NCCC(c1ccccc1)c1ccccc1)Nc1cccc(Cl)c1`: the “hERG current change (%, negative = inhibition) at 1uM” value worked out at 13.1%.

In the case of `N#CC1(NC(=O)COc2ccccc2[N+](=O)[O-])CCCCC1`, the “hERG current change (%, negative = inhibition) at 1uM” value came to 10.3%.

As to `NS(=O)(=O)c1cccnc1Nc1cccc(Cl)c1Cl`, the “hERG current change (%, negative = inhibition) at 1uM” value is listed as 4.89%. For `CC(C)c1nnc(NC(=O)CSc2ccccc2)s1` the value was 15.6%; for `Cc1ccccc1OC(=O)CCC(=O)OCCCC(F)(F)C(F)(F)F`, 21.1%. `Cc1ccc(S(=O)(=O)N2C(=O)CCC2C(=O)Nn2cnnc2)cc1` (stereo not drawn): the “hERG current change (%, negative = inhibition) at 1uM” value was 3.37%.

`CCOc1ccc(C(=O)Nc2cccc3cccnc23)cc1`: the “hERG current change (%, negative = inhibition) at 1uM” value was found to be 13.8%. For the compound `O=C1CCC(=O)N1c1ccc(NCCc2ccccc2F)c([N+](=O)[O-])c1`, the “hERG current change (%, negative = inhibition) at 1uM” value is 5.64%. Turning to `O=C(NCCN1CCCC1)c1ccc(Cn2c(=S)[nH]c3cc4c(cc3c2=O)OCO4)cc1`, the “hERG current change (%, negative = inhibition) at 1uM” value was -7.26%. In the case of `Cc1ccc2nc(SCC(=O)NCc3ccc(F)cc3)[nH]c2c1` it was 4.87%. As to `COC(=O)c1ccc(CSc2nc3c(cnn3-c3ccccc3)c(=O)[nH]2)o1`, the “hERG current change (%, negative = inhibition) at 1uM” value is 11.2%. With `CC(C)c1cccc(C(C)C)c1NC(=O)COC(=O)c1ccc2c(c1)S(=O)(=O)c1ccccc1C2=O`, the “hERG current change (%, negative = inhibition) at 1uM” value was 8.38%. On to `CCC(=O)N(Cc1cc2cc(OC)ccc2[nH]c1=O)c1cc(C)ccc1C`, for which the “hERG current change (%, negative = inhibition) at 1uM” value was found to be 12.4%. Regarding `CCCC12CN3CC(CCC)(CN(C1)C3c1ccccn1)C2=O` (stereo not drawn), the “hERG current change (%, negative = inhibition) at 1uM” value is 1.71%.

In the case of `COc1ccc(-n2c(=S)[nH]c3cc(C(=O)Nc4ccc(C)c(F)c4)ccc3c2=O)c(OC)c1`, the “hERG current change (%, negative = inhibition) at 1uM” value came out at 13.9%. Turning to `O=C(C1CCN(S(=O)(=O)c2cccs2)CC1)N1CCCCC1`, the “hERG current change (%, negative = inhibition) at 1uM” value came out at 5.25%. For `Cc1nc2cc(S(=O)(=O)N(C)C)ccc2n1-c1ccccc1`, the “hERG current change (%, negative = inhibition) at 1uM” value came to 2.54%.

Consider `CCN(CC)CCn1c2c(c(SCC(=O)NCc3ccccc3)nc1=O)CCC2`, for which the “hERG current change (%, negative = inhibition) at 1uM” value is given as -10.6%. For `Cc1cccc(C)c1NC(=O)CNC(=O)C1CCCC1` the value was -7.66%.
